# Data taken from the supplement of paper PMC8728848.
# Some of the results follow.
# How the values were obtained:
# Experiment in all cases: glycan array binding signal (z-score within array); higher = stronger binding
# Settings in all cases: glycan notation: IUPAC condensed, linker removed
# [1] = target: Neu5Ac(a2-3)Gal(b1-4)GlcNAc6S
# In short: (§1)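 Glycan array data came from 3228 arrays in the Consortium for Functional Glycomics database, and only arrays with an available protein sequence were kept. Glycan names were put into IUPAC-condensed notation, and columns mapping to the same glycan were averaged. The binding signal is a within-array Z-score, averaged across arrays of one protein sequence run at different concentrations or buffers and across linkers. A negative Z-score can be read as non-binding.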
# [2] = target: Neu5Ac(a2-3)Gal(b1-4)[Fuc(a1-3)]GlcNAc
# In short: as §1
# [3] = target: Neu5Ac(a2-3)Gal(b1-4)[Fuc(a1-3)]GlcNAc(b1-3)Gal
# In short: as §1
# [4] = target: Neu5Ac(a2-3)Gal(b1-4)[Fuc(a1-3)]GlcNAc(b1-3)Gal(b1-4)GlcNAc
# In short: as §1
# [5] = target: Neu5Ac(a2-3)Gal(b1-4)[Fuc(a1-3)]GlcNAc(b1-3)Gal(b1-4)[Fuc(a1-3)]GlcNAc(b1-3)Gal(b1-4)[Fuc(a1-3)]GlcNAc
# In short: as §1
# [6] = target: Neu5Ac(a2-3)Gal(b1-4)[Fuc(a1-3)]GlcNAc6S
# In short: as §1
# [7] = target: Neu5Ac(a2-3)Gal6S(b1-4)GlcNAc
# In short: as §1
# [8] = target: Neu5Ac(a2-3)Gal6S(b1-4)[Fuc(a1-3)]GlcNAc
# In short: as §1
# Neu5Ac(a2-3)GalNAc = target: Neu5Ac(a2-3)GalNAc
# In short: as §1
# [9] = target: Neu5Ac(a2-3)GalNAc(b1-4)GlcNAc
# In short: as §1
# [10] = target: Neu5Ac(a2-3)[GalNAc(b1-4)]Gal(b1-4)Glc
# In short: as §1
# [11] = target: Neu5Ac(a2-3)[GalNAc(b1-4)]Gal(b1-4)GlcNAc
# In short: as §1
# [12] = target: Neu5Ac(a2-3)[Neu5Ac(a2-6)]GalNAc
# In short: as §1
# Neu5Ac(a2-6)Gal = target: Neu5Ac(a2-6)Gal
# In short: as §1
# Neu5Ac(a2-6)Gal(b1-4)Glc = target: Neu5Ac(a2-6)Gal(b1-4)Glc
# In short: as §1
# [13] = target: Neu5Ac(a2-6)Gal(b1-4)GlcNAc
# In short: as §1
# [14] = target: Neu5Ac(a2-6)Gal(b1-4)GlcNAc(b1-3)Gal(b1-4)GlcNAc
# In short: as §1
# [15] = target: Neu5Ac(a2-6)Gal(b1-4)GlcNAc(b1-3)Gal(b1-4)[Fuc(a1-3)]GlcNAc(b1-3)Gal(b1-4)[Fuc(a1-3)]GlcNAc
# In short: as §1
# [16] = target: Neu5Ac(a2-6)Gal(b1-4)GlcNAc6S
# In short: as §1
# Neu5Ac(a2-6)GalNAc = target: Neu5Ac(a2-6)GalNAc
# In short: as §1
# [17] = target: Neu5Ac(a2-6)GalNAc(b1-4)GlcNAc
# In short: as §1
# Neu5Ac(a2-8)Neu5Ac = target: Neu5Ac(a2-8)Neu5Ac
# In short: as §1
# [18] = target: Neu5Ac(a2-8)Neu5Ac(a2-3)Gal(b1-4)Glc
# In short: as §1
# [19] = target: Neu5Ac(a2-8)Neu5Ac(a2-3)[GalNAc(b1-4)]Gal(b1-4)Glc
# In short: as §1
# [20] = target: Neu5Ac(a2-8)Neu5Ac(a2-8)Neu5Ac
# In short: as §1
# [21] = target: Neu5Ac(a2-8)Neu5Ac(a2-8)Neu5Ac(a2-3)Gal(b1-4)Glc
# In short: as §1
# [22] = target: Neu5Ac(a2-8)Neu5Ac(a2-8)Neu5Ac(a2-3)[GalNAc(b1-4)]Gal(b1-4)Glc
# In short: as §1
# [23] = target: Neu5Ac(a2-8)Neu5Ac(a2-8)Neu5Ac(a2-8)Neu5Ac(a2-3)[GalNAc(b1-4)]Gal(b1-4)Glc
# In short: as §1
# Neu5Ac(b1-6)GalNAc = target: Neu5Ac(b1-6)GalNAc
# In short: as §1
# [24] = target: Neu5Ac(b2-6)Gal(b1-4)GlcNAc
# In short: as §1
# [25] = target: Neu5Ac9Ac(a2-6)Gal(b1-4)GlcNAc
# In short: as §1
# [26] = target: Neu5Gc(a2-3)Gal(b1-3)GlcNAc
# In short: as §1
# [27] = target: Neu5Gc(a2-3)Gal(b1-3)[Fuc(a1-4)]GlcNAc
# In short: as §1
# Neu5Gc(a2-3)Gal(b1-4)Glc = target: Neu5Gc(a2-3)Gal(b1-4)Glc
# In short: as §1
# [28] = target: Neu5Gc(a2-3)Gal(b1-4)GlcNAc
# In short: as §1
# [29] = target: Neu5Gc(a2-3)Gal(b1-4)[Fuc(a1-3)]GlcNAc
# In short: as §1
# [30] = target: Neu5Gc(a2-6)Gal(b1-4)GlcNAc
# In short: as §1
# Neu5Gc(a2-6)GalNAc = target: Neu5Gc(a2-6)GalNAc
# In short: as §1
binder,measurement,setting,value
MAL (Maackia amurensis) (protein) SDELSFTINNFMPNQGDLLFQGVATVSPTGVLQLTSEENGQPLEYSVGRVLYTAPVRIWDSTTGAVASFSTSFTFVVKAARGASDGLAFFLAPPDSQIPSGSVSKYLGLFNNSNSDSSNQIVAVEFDTYFGHSYDPWDPNYRHIGIDVNGIESIKTVQWDWINGGVAFATITYLAPNKTLIASLVYPSNQTSFIVAASVDLKEILPEWVRVGFSAATGAPKAVETHDVRSWSFTSTLEANSPADVDN,glycan array binding signal (z-score),[1],2.84
same,glycan array binding signal (z-score),[2],-0.15
same,glycan array binding signal (z-score),[3],-0.417
same,glycan array binding signal (z-score),[4],-0.363
same,glycan array binding signal (z-score),[5],-0.422
same,glycan array binding signal (z-score),[6],-0.335
same,glycan array binding signal (z-score),[7],-0.405
same,glycan array binding signal (z-score),[8],-0.419
same,glycan array binding signal (z-score),Neu5Ac(a2-3)GalNAc,-0.392
same,glycan array binding signal (z-score),[9],-0.416
same,glycan array binding signal (z-score),[10],-0.394
same,glycan array binding signal (z-score),[11],-0.429
same,glycan array binding signal (z-score),[12],-0.38
same,glycan array binding signal (z-score),Neu5Ac(a2-6)Gal,-0.416
same,glycan array binding signal (z-score),Neu5Ac(a2-6)Gal(b1-4)Glc,0.057
same,glycan array binding signal (z-score),[13],-0.338
same,glycan array binding signal (z-score),[14],-0.327
same,glycan array binding signal (z-score),[15],-0.388
same,glycan array binding signal (z-score),[16],0.009
same,glycan array binding signal (z-score),Neu5Ac(a2-6)GalNAc,-0.396
same,glycan array binding signal (z-score),[17],-0.382
same,glycan array binding signal (z-score),Neu5Ac(a2-8)Neu5Ac,-0.248
same,glycan array binding signal (z-score),[18],-0.415
same,glycan array binding signal (z-score),[19],-0.41
same,glycan array binding signal (z-score),[20],-0.344
same,glycan array binding signal (z-score),[21],3.2
same,glycan array binding signal (z-score),[22],-0.381
same,glycan array binding signal (z-score),[23],-0.362
same,glycan array binding signal (z-score),Neu5Ac(b1-6)GalNAc,-0.337
same,glycan array binding signal (z-score),[24],-0.356
same,glycan array binding signal (z-score),[25],-0.407
same,glycan array binding signal (z-score),[26],-0.422
same,glycan array binding signal (z-score),[27],-0.315
same,glycan array binding signal (z-score),Neu5Gc(a2-3)Gal(b1-4)Glc,1.62
same,glycan array binding signal (z-score),[28],-0.416
same,glycan array binding signal (z-score),[29],-0.371
same,glycan array binding signal (z-score),[30],-0.315
same,glycan array binding signal (z-score),Neu5Gc(a2-6)GalNAc,-0.35
